{
  "source": "PubChem BioAssay AID504333",
  "about": "(National Center for Advancing Translational Sciences (NCATS), 2011)",
  "note": "Among all 360,000 compounds or so, about 16,000 (4.4%) were called active. Inconclusive means that the source gave no clear call. Such entries were picked first, then a sample of the others. The call rests on the fitted dose curve; in most records, active means well fitted inhibition curve with a large enough effect; inconclusive means small, poorly fitted or top-dose-only effect; inactive means no such curve, though single readings can be large or run the other way. Where the call is inconclusive, the potency comes from a doubtful curve fit. Potency means the concentration at half of the fitted maximal effect; tags describe the fitted curve by direction and shape.",
  "data": [
    {"target": "Bromodomain adjacent to zinc finger domain protein 2B (Homo sapiens) (UniProt Q9UIF8)", "sequence (Q9UIF8 whole entry, looked up, the tested form may be a part)": "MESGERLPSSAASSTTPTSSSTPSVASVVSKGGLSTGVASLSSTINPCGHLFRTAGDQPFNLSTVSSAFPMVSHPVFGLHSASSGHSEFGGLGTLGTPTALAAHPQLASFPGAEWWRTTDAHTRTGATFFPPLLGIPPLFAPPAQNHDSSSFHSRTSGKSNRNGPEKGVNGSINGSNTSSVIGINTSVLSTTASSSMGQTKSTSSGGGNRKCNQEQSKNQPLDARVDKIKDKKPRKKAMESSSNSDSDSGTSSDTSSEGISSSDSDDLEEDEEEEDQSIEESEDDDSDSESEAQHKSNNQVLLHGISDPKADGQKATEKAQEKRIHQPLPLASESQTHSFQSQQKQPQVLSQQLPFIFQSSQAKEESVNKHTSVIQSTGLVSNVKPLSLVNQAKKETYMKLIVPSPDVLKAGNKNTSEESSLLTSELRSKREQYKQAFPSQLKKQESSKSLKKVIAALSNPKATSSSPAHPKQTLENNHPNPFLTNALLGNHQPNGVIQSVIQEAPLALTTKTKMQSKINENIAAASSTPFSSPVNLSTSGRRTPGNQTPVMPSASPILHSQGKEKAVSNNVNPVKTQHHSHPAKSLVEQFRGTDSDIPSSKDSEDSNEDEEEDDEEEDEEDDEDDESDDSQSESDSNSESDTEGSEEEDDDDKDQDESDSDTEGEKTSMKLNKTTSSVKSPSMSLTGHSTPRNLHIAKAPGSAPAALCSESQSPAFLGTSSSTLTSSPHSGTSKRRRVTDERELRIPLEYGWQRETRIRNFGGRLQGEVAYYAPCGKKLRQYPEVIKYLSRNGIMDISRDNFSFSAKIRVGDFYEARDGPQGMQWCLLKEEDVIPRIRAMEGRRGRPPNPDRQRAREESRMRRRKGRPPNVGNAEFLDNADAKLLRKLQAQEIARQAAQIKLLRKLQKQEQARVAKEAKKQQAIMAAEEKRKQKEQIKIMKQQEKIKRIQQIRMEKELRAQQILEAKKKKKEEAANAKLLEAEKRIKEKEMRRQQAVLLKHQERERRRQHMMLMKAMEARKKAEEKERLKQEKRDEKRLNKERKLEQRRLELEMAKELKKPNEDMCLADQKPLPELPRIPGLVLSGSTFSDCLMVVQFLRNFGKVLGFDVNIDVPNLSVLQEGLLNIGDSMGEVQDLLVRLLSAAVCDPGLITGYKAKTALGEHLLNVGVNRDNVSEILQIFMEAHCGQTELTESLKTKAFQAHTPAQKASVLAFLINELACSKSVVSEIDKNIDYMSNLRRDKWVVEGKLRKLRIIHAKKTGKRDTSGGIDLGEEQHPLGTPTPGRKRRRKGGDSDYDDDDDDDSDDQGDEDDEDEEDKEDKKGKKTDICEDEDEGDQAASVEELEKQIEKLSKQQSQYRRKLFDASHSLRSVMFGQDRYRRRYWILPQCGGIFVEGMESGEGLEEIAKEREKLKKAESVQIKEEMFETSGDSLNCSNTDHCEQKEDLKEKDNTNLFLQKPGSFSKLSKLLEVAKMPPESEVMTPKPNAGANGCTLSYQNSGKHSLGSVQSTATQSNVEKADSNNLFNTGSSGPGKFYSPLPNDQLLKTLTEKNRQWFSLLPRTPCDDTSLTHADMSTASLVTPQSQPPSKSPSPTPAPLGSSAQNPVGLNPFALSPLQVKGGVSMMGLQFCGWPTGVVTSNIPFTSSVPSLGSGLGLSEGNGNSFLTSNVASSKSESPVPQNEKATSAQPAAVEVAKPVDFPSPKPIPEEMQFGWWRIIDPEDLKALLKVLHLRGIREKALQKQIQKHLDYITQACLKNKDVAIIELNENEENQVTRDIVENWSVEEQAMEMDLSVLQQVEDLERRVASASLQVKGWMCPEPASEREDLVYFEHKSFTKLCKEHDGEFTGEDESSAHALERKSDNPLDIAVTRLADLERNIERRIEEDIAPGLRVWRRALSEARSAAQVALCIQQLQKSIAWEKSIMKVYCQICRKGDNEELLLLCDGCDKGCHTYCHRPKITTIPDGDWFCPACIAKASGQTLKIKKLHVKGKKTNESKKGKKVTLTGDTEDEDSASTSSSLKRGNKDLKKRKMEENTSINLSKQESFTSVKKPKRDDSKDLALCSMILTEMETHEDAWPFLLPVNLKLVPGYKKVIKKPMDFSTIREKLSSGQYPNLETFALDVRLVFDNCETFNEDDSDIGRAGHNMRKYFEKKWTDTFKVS", "test": "qHTS Assay for Inhibitors of BAZ2B; further: nearly all actives have a fitted effect of over 60% in size", "details": "AlphaScreen BAZ2B-H3K14Ac peptide displacement; series mostly up to 114 µM", "how_it_was_run": "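Inhibition is scored as reduced AlphaScreen emission. The BAZ2B/b-H3(5-23)K14Ac complex (50 nM each) in PBS pH 7.4, 0.01% Tween-20 meets compound (up to 110 uM) for 30 min at RT before bead addition.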", "values": [
      {"molecule": "O=C(OCc1ccc(F)cc1Cl)c1ccccn1", "Potency": "inactive"},
      {"molecule": "CC(=O)c1ccc(NC(=O)c2cccc(N3C(=O)c4ccccc4C3=O)c2)cc1", "Potency": "inactive"},
      {"molecule": "Cn1c2c(c(=O)n(C)c1=O)C(NC(=O)c1ccco1)(C(F)(F)F)C(=O)N2", "note": "(stereo unspecified)", "Potency": "inconclusive: 89.1 µM [inhibitor, single point]"},
      {"molecule": "COc1ccc2cc(C(=O)NCc3ccccc3)c(=Nc3ccc(C(=O)O)cc3)oc2c1", "Potency": "inconclusive: 89.1 µM [inhibitor, single point]"},
      {"molecule": "CN(CC(=O)Nc1ccc(S(=O)(=O)N2CCCC2)cc1)CC(=O)Nc1ccc(F)c(F)c1F", "Potency": "inconclusive: 89.1 µM [inhibitor, single point]"},
      {"molecule": "COc1ccccc1NC(=O)C1C2C=CC(O2)C1C(=O)O", "note": "(stereo unspecified)", "Potency": "inconclusive: 89.1 µM [inhibitor, single point]"},
      {"molecule": "COCCn1c(=S)[nH]c2cc(C(=O)NCC3CCCO3)ccc2c1=O", "note": "(stereo unspecified)", "Potency": "inconclusive: 100 µM [inhibitor, single point]"},
      {"molecule": "CCCC[C@@H]1CNCCN1CCc1cccc(F)c1", "Potency": "inactive"},
      {"molecule": "COc1ccc2c(C)c(C(=O)N3CCN(Cc4ccccc4)CC3)oc2c1", "Potency": "inconclusive: 25.1 µM [inhibitor, partial curve, poor fit]"},
      {"molecule": "Cc1cc(C)cc(NC2=C(N)C(=O)c3ccccc3C2=O)c1", "Potency": "inconclusive: 1.78 µM [inhibitor, full curve]"},
      {"molecule": "O=C(/C(=C/O)N=Nc1ccccc1Cl)c1ccccc1", "Potency": "active: 12.6 µM"},
      {"molecule": "CCOC(=O)CNC(=O)CCc1nnc2ccc(N3CCC(C)CC3)nn12", "Potency": "inconclusive: 3.98 µM [inhibitor, single point]"},
      {"molecule": "NC(=O)c1cc2c3ccccc3ccn2c1-c1ccccc1", "Potency": "active: 31.6 µM"},
      {"molecule": "COc1ccc(NC(=O)CSc2nnc(Cc3cccn3C)n2-c2ccc(F)cc2)cc1OC", "Potency": "active: 50.1 µM"},
      {"molecule": "O=[N+]([O-])c1cccc(S(=O)(=O)NCCCn2ccnc2)c1", "Potency": "active: 50.1 µM"},
      {"molecule": "COc1ccccc1CNC(=O)[C@H](C)NC(=O)C1CCN(C(=O)[C@@H](N)CCSC)CC1", "Potency": "inconclusive: 89.1 µM [inhibitor, single point]"},
      {"molecule": "CCOC(=O)N1CCN(C(=O)c2cnn(-c3cccc(F)c3)c2-n2cccc2)CC1", "Potency": "inactive"},
      {"molecule": "COc1ccc(Nc2ncnc3ccc([N+](=O)[O-])cc23)c(OC)c1", "Potency": "inconclusive: 70.8 µM [inhibitor, single point]"},
      {"molecule": "COc1ccc(C2=C(N3CCN(c4cc(Cl)ccc4C)CC3)c3ccccc3C2=O)cc1", "Potency": "active: 2.82 µM"},
      {"molecule": "CC(=O)Nc1ccc(S(=O)(=O)NCCSc2ccccn2)cc1", "Potency": "inactive"},
      {"molecule": "COc1cc(/C=C2\\C(=N)N3N=C(C)SC3=NC2=O)cc(Cl)c1OCCOc1ccc(NC(C)=O)cc1", "Potency": "active: 79.4 µM"},
      {"molecule": "CCN(CC)C(=O)CN1CCN(Cc2ccc3c(c2)OCO3)CC1", "Potency": "inconclusive: 79.4 µM [inhibitor, single point]"},
      {"molecule": "CCOc1ccc(Nc2nc(Nc3ccc(O)cc3)nc(C)c2[N+](=O)[O-])cc1", "Potency": "inconclusive: 50.1 µM [inhibitor, partial curve]"},
      {"molecule": "C1=CCC(CN2CCN(C3CCCCCC3)CC2)CC1", "note": "(stereo unspecified)", "Potency": "active: 44.7 µM"},
      {"molecule": "CNc1oc(Cc2cccc3ccccc23)nc1C#N", "Potency": "inconclusive: 39.8 µM [inhibitor, partial curve]"},
      {"molecule": "CCOC(=O)c1cc2c(ccn2C)n1Cc1cc(C)ccc1C", "Potency": "active: 50.1 µM"},
      {"molecule": "Cc1cccc(Oc2ccccc2NC(=O)c2cnccn2)c1", "Potency": "inactive"},
      {"molecule": "COc1ccc(-c2[nH]ncc2CN2CCCCCCC2)c(OC)c1", "Potency": "inconclusive: 20 µM [inhibitor, full curve]"},
      {"molecule": "O=C(NCc1ccco1)/C(=C\\c1ccco1)NC(=O)c1cccs1", "Potency": "inconclusive: 89.1 µM [inhibitor, single point]"},
      {"molecule": "CCC(C)NC(=S)N(CCc1ccccc1)Cc1cc2cc(OC)c(OC)cc2[nH]c1=O", "note": "(stereo unspecified)", "Potency": "inconclusive: 79.4 µM [inhibitor, single point]"},
      {"molecule": "Cc1nnc(SCC(=O)Nc2sccc2C#N)n1Cc1ccccc1", "Potency": "inconclusive: 89.1 µM [inhibitor, single point]"},
      {"molecule": "CCn1cc(C(=O)O)c(=O)c2cc(F)c(N3CCN(S(=O)(=O)c4ccc(NC(=O)OC)cc4)CC3)cc21", "Potency": "inconclusive: 50.1 µM [inhibitor, partial curve]"},
      {"molecule": "S=C(NCc1ccco1)Nc1ccc(Cl)cn1", "Potency": "inconclusive: 31.6 µM [inhibitor, full curve, poor fit]"},
      {"molecule": "CCOC(=O)c1ccc(-n2c(N)c(C(=O)NCc3ccco3)sc2=S)cc1", "Potency": "active: 39.8 µM"},
      {"molecule": "CC(/C=N/NC(=O)C(O)c1ccccc1)=C\\c1ccccc1", "note": "(stereo unspecified)", "Potency": "inconclusive: 89.1 µM [inhibitor, single point]"},
      {"molecule": "CCC(=O)O/N=C(\\N)c1ccc(Oc2cc(C)c(Cl)c(C)c2)c([N+](=O)[O-])c1", "Potency": "inconclusive: 56.2 µM [inhibitor, partial curve, poor fit]"},
      {"molecule": "COc1ccc(Nc2nc(-c3c(C)nc4ncccn34)cs2)cc1", "Potency": "inconclusive: 50.1 µM [inhibitor, partial curve]"},
      {"molecule": "Cc1ccccc1S(=O)(=O)NNC(=O)C(=O)NNc1ccccn1", "Potency": "inconclusive: 89.1 µM [inhibitor, single point]"},
      {"molecule": "Cc1cccc(C)c1OCC(O)CNC(C)C", "note": "(stereo unspecified)", "Potency": "inconclusive: 7.08 µM [inhibitor, single point]"},
      {"molecule": "CN1CCN(CCCc2c3c(cc4c2CCC4)CCC3)CC1", "Potency": "inconclusive: 89.1 µM [inhibitor, single point]"},
      {"molecule": "CC1CC(C)CN(CCOc2ccc(Cl)cc2Cl)C1", "note": "(stereo unspecified)", "Potency": "active: 56.2 µM"},
      {"molecule": "Cc1ccc(Nc2nc(-c3sc(NC(=O)c4cccc(Cl)c4)nc3C)cs2)cc1", "Potency": "inconclusive: 79.4 µM [inhibitor, single point]"},
      {"molecule": "COc1ccccc1OCC(=O)N1CCCC(Nc2ccc(C)c(C)c2)C1", "note": "(stereo unspecified)", "Potency": "inconclusive: 50.1 µM [inhibitor, partial curve]"},
      {"molecule": "Nc1nc(SCC(=O)Nc2cccnc2Cl)n[nH]1", "Potency": "inactive"},
      {"molecule": "CCOC(=O)c1ccc2nc3c(cc2c1)CCS3", "Potency": "inactive"},
      {"molecule": "COc1cccc(-c2nnc3n2N=C(c2cc(OC)ccc2OC)CS3)c1", "Potency": "inactive"}
    ]}
  ]
}
